# Out of some 390,000 compounds screened, about 17,000 (4.4%) were called active. Inconclusive means that the source gave no clear call. Such entries were picked first, then a sample of the others. Calls follow the shape of the dose curve; as a rule, active = well fitted inhibition curve with a large enough effect; inconclusive = small, poorly fitted or top-dose-only effect; inactive = no such curve, though single readings can be large or run the other way. Where the call is inconclusive, the potency comes from a doubtful curve fit.
# Target: Lysine-specific demethylase 4A (Homo sapiens) (UniProt O75164)
# Chain of UniProt O75164 (O75164 whole entry, looked up, the tested form may be a part): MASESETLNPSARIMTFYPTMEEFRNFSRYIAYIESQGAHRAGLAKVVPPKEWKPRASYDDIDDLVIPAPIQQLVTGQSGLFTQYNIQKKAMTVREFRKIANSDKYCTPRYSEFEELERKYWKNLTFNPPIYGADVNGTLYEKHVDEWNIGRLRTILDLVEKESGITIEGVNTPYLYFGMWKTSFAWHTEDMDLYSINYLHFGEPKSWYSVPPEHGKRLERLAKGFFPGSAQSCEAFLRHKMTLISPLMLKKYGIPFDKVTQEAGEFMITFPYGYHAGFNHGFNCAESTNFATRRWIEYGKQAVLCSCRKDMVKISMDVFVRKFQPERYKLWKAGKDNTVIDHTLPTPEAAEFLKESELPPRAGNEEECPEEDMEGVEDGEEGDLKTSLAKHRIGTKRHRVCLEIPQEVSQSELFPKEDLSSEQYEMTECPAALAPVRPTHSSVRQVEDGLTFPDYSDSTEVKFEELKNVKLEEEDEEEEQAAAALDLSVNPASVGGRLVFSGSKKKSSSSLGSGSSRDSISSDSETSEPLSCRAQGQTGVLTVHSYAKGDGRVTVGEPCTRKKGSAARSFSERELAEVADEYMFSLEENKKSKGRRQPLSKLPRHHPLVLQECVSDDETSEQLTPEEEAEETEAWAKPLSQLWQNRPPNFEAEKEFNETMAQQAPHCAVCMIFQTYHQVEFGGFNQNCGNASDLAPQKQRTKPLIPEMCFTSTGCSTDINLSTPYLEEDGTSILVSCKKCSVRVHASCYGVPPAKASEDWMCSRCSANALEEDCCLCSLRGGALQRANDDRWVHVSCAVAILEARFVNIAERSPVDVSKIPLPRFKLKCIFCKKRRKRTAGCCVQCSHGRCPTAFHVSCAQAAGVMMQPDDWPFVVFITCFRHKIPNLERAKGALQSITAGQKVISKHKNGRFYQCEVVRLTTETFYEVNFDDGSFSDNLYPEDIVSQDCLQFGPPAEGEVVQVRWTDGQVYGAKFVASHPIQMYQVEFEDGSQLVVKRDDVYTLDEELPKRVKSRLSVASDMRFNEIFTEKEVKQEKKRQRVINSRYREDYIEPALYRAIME
# Assay: qHTS Assay for Inhibitors of JMJD2A-Tudor Domain; also: nearly all actives have a fitted effect of over 50% in size
# Conditions: AlphaScreen JMJD2A-Tudor / H3K4me3 peptide binding; activity change, negative = inhibition: at 114 µM (top of the series)
# % is scaled to controls: 0 for no effect and ±100 for the full control effect; potency is read from the fitted curve at half-maximal effect; tags tell the direction and shape of the fitted curve.
Compound,"activity change, negative = inhibition",Potency
O=C(CSc1nc(=O)n(Cc2ccncc2)c2c1CCC2)Nc1ccc(F)cc1F,inactive: -4.22%,
O=C(Nc1nc2ccccc2[nH]1)C1CCCO1 (stereo not given),,"inconclusive: 89.1 µM [inhibitor, single point]"
O=C(CCC(=O)N1CCOc2ccccc21)NCCN1CCOCC1,inactive: -9.52%,
COc1ccc(-c2noc(-c3ccc(N4CCN(c5ccccc5OC)CC4)c([N+](=O)[O-])c3)n2)cc1,inactive: -16.6%,
CCOc1cc2c3c(c1)C1(C(=O)N3C(C)(C)CC2C)C(C#N)=C(N)N2C(=C1C#N)Nc1ccccc12 (stereo not given),,"inconclusive: 70.8 µM [inhibitor, single point]"
CC(=O)N1N=C(c2c(-c3ccccc3)c3cc(C)ccc3[nH]c2=O)CC1c1ccco1 (stereo not given),,"inconclusive: 39.8 µM [inhibitor, single point]"
C/C(N)=C(/C#N)C(=O)CSc1cc(Cl)ccc1Cl,inactive: -7.14%,
CCOc1ccc(NC(=O)CSc2nnc(CNC(=O)C34CC5CC(CC(C5)C3)C4)n2CC)cc1,inactive: -16.8%,
O=C(Nc1ccccc1Cl)c1cc2ccccc2o/c1=N\O,,"inconclusive: 50.1 µM [inhibitor, partial curve]"
CCOC(=O)c1ccccc1NC(=O)Nc1cc2c(cc1N1CCCC1)n(C)c(=O)n2C,,"inconclusive: 79.4 µM [inhibitor, partial curve]"
Nc1ncnc2c1[nH]c(=S)n2C1OC(CO)C(O)C1O (stereo not given),,"inconclusive: 39.8 µM [inhibitor, single point]"
CC(C)Oc1ccc(CNC(=O)c2ccc3c(c2)N(C)CCS3)cc1,,"inconclusive: 44.7 µM [inhibitor, full curve]"
Cc1ccc(NC(=O)c2noc3c2CCCCC3)cc1,inactive: -3.65%,
Cc1ccc(-c2noc(-c3ccccc3C(=O)N3CCOCC3)n2)cc1,,"inconclusive: 35.5 µM [inhibitor, partial curve]"
COc1ccc(OC)c(CNC(=O)CN2N=C(c3ccc(Cl)cc3)CCC2=O)c1,inactive: -26.6%,
O=C(NCCc1ccc(Cl)cc1)C(=O)NCC(c1cccs1)S(=O)(=O)c1cccs1 (stereo not given),inactive: -4.87%,
O=C(COc1ccccc1F)N1N=C(c2cccs2)CC1c1ccco1 (stereo not given),,active: 14.1 µM
O=C(O)C[C@H]1c2ccccc2S(=O)(=O)N1C1CCCC1,inactive: -24.1%,
NCCCC[C@@H]1NC(=O)[C@H](CCC(=O)O)NC(=O)c2cc([N+](=O)[O-])cc(I)c2SC[C@@H](C(=O)NCC(N)=O)NC1=O,,active: 22.4 µM
CCOC(=O)C1(CCc2ccccc2)CCN(Cc2cc(OC)c(OC)cc2OC)CC1,,"inconclusive: 28.2 µM [inhibitor, full curve]"
CN(C)/N=C/c1cn(-c2ccccc2)nc1-c1cccnc1,,"inconclusive: 56.2 µM [inhibitor, partial curve]"
CCOc1ccc(OCC)c(S(=O)(=O)NNC(=O)c2c(C)nc3ccccn23)c1,,"inconclusive: 35.5 µM [inhibitor, partial curve]"
CNC(=S)N(CCc1c(C)[nH]c2ccc(C)cc12)Cc1ccc(OC)c(OC)c1,,"inconclusive: 50.1 µM [inhibitor, partial curve]"
COc1ccc(NC(=O)Cc2c[nH]c3ccccc23)cc1S(=O)(=O)N1CCCCC1,,"inconclusive: 89.1 µM [inhibitor, partial curve, poor fit]"

Compound,"activity change, negative = inhibition",Potency
NCC(c1ccccc1)c1c[nH]c2ccccc12 (stereo not given),,"inconclusive: 79.4 µM [inhibitor, partial curve]"
CCOc1ccc2nc(N(CCN(C)C)C(=O)c3cc4ccccc4cc3OC)sc2c1,,active: 39.8 µM
C/C(=N\N1CCN(C2c3ccccc3-c3ccccc32)CC1)c1ccncc1,,"inconclusive: 56.2 µM [inhibitor, partial curve]"
CCOc1ccc(S(=O)(=O)NCCc2c(C)[nH]c3c(Cl)cccc23)cc1C,,"inconclusive: 14.1 µM [inhibitor, full curve, poor fit]"
Cc1ccc(S(=O)(=O)N2CCc3c2cc([N+](=O)[O-])cc3[N+](=O)[O-])cc1,,active: 31.6 µM
Cc1csc2c(N3CCN(C(=O)c4ccc(C(C)(C)C)cc4)CC3)ncnc12,inactive: -18.3%,
O=C(Nc1nc2ccc(F)cc2s1)c1nc(S(=O)(=O)Cc2ccccc2F)ncc1Cl,inactive: -26.1%,
O=C(O)c1cccc(-c2ccc(/C=N/Nc3nn[nH]n3)o2)c1,,active: 56.2 µM
Cc1ccc(Sc2nc(C)c([N+](=O)[O-])c(C)c2C#N)cc1,,"inconclusive: 35.5 µM [inhibitor, full curve, poor fit]"
COc1ccc(C(=O)/C=C/c2cn(CN3CCN(C)CC3)c3ccccc23)cc1,inactive: -33.1%,
CC(C)(C)c1ccc2c(c1)N(CC(=O)NCCCN1CCN(c3ccccc3F)CC1)C(=O)CO2,inactive: -18%,
Cn1c(CCNC(=O)C2CCCCC2)nc2cc(NC(=O)c3cccs3)ccc21,,"inconclusive: 56.2 µM [inhibitor, partial curve]"
C=CCn1c(CNC(=O)c2cccs2)n[nH]c1=S,,"inconclusive: 39.8 µM [inhibitor, single point]"
CC(=O)N1CC(=O)N=C1SCC(=O)Nc1nc(-c2ccccc2)c(-c2ccccc2)s1,,"inconclusive: 50.1 µM [inhibitor, partial curve]"
Cc1ccc(Cl)cc1N1CCN(C(=O)CSc2cc(=O)n(C)c3ccccc23)CC1,,"inconclusive: 8.91 µM [inhibitor, full curve, poor fit]"
CN1C(=O)/C(=C/c2ccccc2Cl)Sc2ccc(C(=O)NCc3cccnc3)cc21,,"inconclusive: 20 µM [inhibitor, full curve, poor fit]"
Cc1ccc(NS(=O)(=O)c2cc3c(cc2-c2ccsc2)NC(=O)CO3)cc1C,inactive: -28.6%,
CCOCCSc1n[nH]c(=O)n1CCc1ccccc1,inactive: -6.41%,
CSc1cccc(NC(=S)N(CCCN2CCCC2)Cc2cccs2)c1,,"inconclusive: 56.2 µM [inhibitor, partial curve]"
Cc1[nH]c(-c2ccc(F)cc2)cc1C(=O)N1CCN(c2cccc(Cl)c2)CC1,,"inconclusive: 56.2 µM [inhibitor, partial curve]"
O=c1nc(/C=C/c2cccn2-c2ccc([N+](=O)[O-])cc2)cc(C(F)(F)F)[nH]1,,"inconclusive: 50.1 µM [inhibitor, partial curve]"
CC(C)CC(NS(=O)(=O)OCC(Cl)(Cl)Cl)c1ccccc1 (stereo not given),,active: 39.8 µM
COc1ccccc1N1CCN(C2CCCN(C(=O)c3cccc(-c4ccco4)c3)C2)CC1 (stereo not given),,"inconclusive: 39.8 µM [inhibitor, partial curve]"
Cn1c(N)c(C(=O)COC(=O)c2ccccn2)c(=O)n(C)c1=O,,active: 79.4 µM

Compound,"activity change, negative = inhibition",Potency
COc1ccc(/C=N/Nc2nc(Nc3ccccc3)nc(N3CCCCC3)n2)cc1OC,,"inconclusive: 79.4 µM [inhibitor, partial curve]"
O=C(CCCCCn1c(=O)c2sccc2n(CC(=O)Nc2cc(C(F)(F)F)ccc2Cl)c1=O)NCc1ccccc1Cl,inactive: -14%,
Cc1ccc(S(=O)(=O)C(C#N)c2nc3ccccc3nc2N2CCCC2)cc1C (stereo not given),,"inconclusive: 22.4 µM [inhibitor, full curve]"
N#CC1(Nc2ccc3ccccc3c2)CCCC1,,"inconclusive: 79.4 µM [inhibitor, partial curve]"
CCc1cccc(-n2c(=O)c3cccnc3n2CC(=O)NCc2ccc(C)cc2)c1,inactive: -7.47%,
Cc1cc(C)cc(C(=O)NC(CC(N)=O)c2ccc(N3CCCCCC3)c([N+](=O)[O-])c2)c1 (stereo not given),,"inconclusive: 56.2 µM [inhibitor, partial curve]"
CCNC(=O)C1CCCN1C(=O)C(CCCN=C(N)N)NC(=O)C(CC(C)C)NC(=O)C(Cc1cn(Cc2ccccc2)cn1)NC(=O)C(Cc1ccc(O)cc1)NC(=O)C(CO)NC(=O)C(Cc1c[nH]c2ccccc12)NC(=O)C(Cc1cnc[nH]1)NC(=O)C1CCC(=O)N1 (stereo not given),,"inconclusive: 50.1 µM [inhibitor, partial curve]"
C[n+]1cc2c3c(ccc2c2ccc4cc5c(cc4c21)OCO5)OCO3,,active: 89.1 µM
Cc1cc(C)cc(NC(=O)c2ccc([N+](=O)[O-])o2)c1,,"inconclusive: 79.4 µM [inhibitor, partial curve]"
Cc1ccc(C(=O)c2c3ccc(N)cc3nn2CCC(N)=O)cc1,,"inconclusive: 50.1 µM [inhibitor, partial curve]"
CSc1cccc(NC(=S)N2CCC(N(C)C(C)C)CC2)c1,inactive: -18.8%,
Cc1ccc(NC(=O)CN(C)C(=O)CCSc2ccc(F)cc2)cc1,inactive: 0.336%,
C[N+](C)(C)CCCN1C(=O)CCCC1=O,,active: 56.2 µM
Oc1[nH]c2ccc(Br)cc2c1N=NC(=S)NCC1CCCO1 (stereo not given),,"inconclusive: 17.8 µM [inhibitor, full curve]"
CCOC(=O)c1c(NC(=O)c2cc(OC)c(OC)c(OC)c2)sc2c1CCCC2,inactive: -16.3%,
CCOc1ccccc1CNc1ccc(O)cc1,,active: 56.2 µM
Cc1nc2[nH]c(=S)[nH]c2c(=O)[nH]1,,active: 20 µM
CC1(c2ccccc2Cl)NC(=O)N(CC(=O)Nc2ccc(N3CCOCC3)cc2)C1=O (stereo not given),inactive: -3.72%,
O=C(NNc1nc2ccc(F)cc2s1)c1cccc(F)c1,inactive: -15.2%,
O=C(Nc1nnc(-c2ccco2)o1)c1ccc([N+](=O)[O-])s1,,"inconclusive: 50.1 µM [inhibitor, partial curve]"
COc1ccc(-c2cn(Cc3ccc(C(N)=O)cc3)c(-c3ccc(Cl)nc3)n2)cc1,,"inconclusive: 70.8 µM [inhibitor, partial curve]"
Oc1ccccc1C1C=C(c2ccc3c(c2)OCO3)NC(c2c(F)cccc2Cl)N1 (stereo not given),,"inconclusive: 35.5 µM [inhibitor, full curve, poor fit]"

# Reference: PubChem BioAssay AID504339 (National Center for Advancing Translational Sciences (NCATS), 2011)
